The supplement of paper PMC4166925
± gives the standard deviation of the averaged measurements. Over roughly 33,000 sequences, “E-score (dimensionless, -0.5 to 0.5)” has its median near -0.046; the highest 2% begin near 0.36. The list shows a part of the results.

system: T1, SpTbr T-box DNA-binding domain (GST fusion); assay: PBM E-score of 8-mer (E-score (dimensionless, -0.5 to 0.5)); Tbr is Tbrain of the sea star Patiria miniata (Pm) or the sea urchin Strongylocentrotus purpuratus (Sp); higher = stronger binding preference; most listed sequences are background and not binding sites; conditions: the construct has about 5 more residues each side
T1 sequence: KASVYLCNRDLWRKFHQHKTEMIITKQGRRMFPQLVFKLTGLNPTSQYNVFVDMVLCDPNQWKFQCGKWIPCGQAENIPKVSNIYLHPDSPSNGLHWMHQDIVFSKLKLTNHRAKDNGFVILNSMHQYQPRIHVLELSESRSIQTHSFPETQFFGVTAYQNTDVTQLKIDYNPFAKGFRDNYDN
Method in brief: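 Each ungapped 8-mer received an enrichment E-score from the Universal PBM Analysis Suite, averaged over duplicate arrays. The proteins were Tbr T-box DNA-binding domains, covering the whole T-box plus about five flanking residues, fused to GST and expressed in BL21 E. coli at 20 °C before glutathione affinity purification. Universal Agilent oligonucleotide arrays were made double-stranded by primer extension and incubated with 200 nM protein in PBS (pH 7.5). The arrays were then scanned and quantified, and every 8-mer was scored from probe intensities.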

| Sequence | PBM E-score of 8-mer |
| --- | --- |
| CACGTATG | 0.164 ± 0.0055 |
| CGGAATCA | -0.103 ± 0.064 |
| GGCCTTCA | -0.0525 ± 0.033 |
| AAATGGAG | -0.0892 ± 0.0065 |
| CGTACCGC | 0.011 ± 0.031 |
| ACACGGGA | -0.0309 ± 0.016 |
| AACCGACA | 0.151 ± 0.061 |
| CAATTTGG | -0.0877 ± 0.012 |
| GCTTGTCA | 0.12044 ± 2.8e-05 |
| CTCCCACA | 0.111 ± 0.079 |
| AGCCTACC | -0.245 ± 0.012 |
| CGTGTCGA | 0.264 ± 0.013 |
| GCAATAAA | -0.0966 ± 0.036 |
| AATATACG | -0.167 ± 0.12 |
| CATAACTC | -0.179 ± 0.0028 |
| CAGGCAAC | -0.0575 ± 0.088 |
| ATAAATTC | -0.0229 ± 0.07 |
| AACAAGGT | 0.271 ± 0.009 |
| AAGTCTAC | 0.0745 ± 0.011 |
| CCGCACTC | 0.108 ± 0.012 |
| CGCATATC | -0.0822 ± 0.013 |
| CAGGCTAC | -0.221 ± 0.014 |
| CTGGTCAC | 0.23 ± 0.0071 |
| GCCCCAGA | 0.00354 ± 0.036 |
| CCACACCC | 0.414 ± 0.024 |

| Sequence | PBM E-score of 8-mer |
| --- | --- |
| CATGATCG | -0.0549 ± 0.084 |
| TACTCCCA | -0.178 ± 0.016 |
| ACCGGACA | -0.114 ± 0.033 |
| CGGCTAGA | -0.0792 ± 0.016 |
| CAAAGCCC | -0.264 ± 0.033 |
| AGGAGTTG | 0.224 ± 0.013 |
| ACGTGGAC | -0.0195 ± 0.032 |
| AAGCATAT | -0.0864 ± 0.031 |
| AACCTTCA | -0.0641 ± 0.013 |
| AAGATACT | -0.301 ± 0.035 |
| AATGTGGC | 0.219 ± 0.02 |
| ACCCTCAG | -0.0635 ± 0.019 |
| GCGAGCGA | 0.187 ± 0.061 |
| ATCGCATG | 0.0472 ± 0.044 |
| ATAATGTG | 0.24 ± 0.09 |
| CGTATAAG | -0.104 ± 0.021 |
| ATCTGACG | 0.0261 ± 0.029 |
| ACGACAGC | 0.0353 ± 0.031 |
| AATAGATT | -0.154 ± 0.049 |
| CGATTAAG | -0.0402 ± 0.044 |
| CACCCTAG | 0.189 ± 0.083 |
| ATCCAGAC | -0.107 ± 0.045 |
| GCACCAAA | 0.0453 ± 0.016 |
| CTTAGTAC | -0.196 ± 0.031 |
| AGAGGTGA | 0.298 ± 0.023 |

| Sequence | PBM E-score of 8-mer |
| --- | --- |
| AGTTAATC | -0.105 ± 0.081 |
| AGTCAACG | 0.0156 ± 0.056 |
| ATGGAACG | -0.2064 ± 0.0019 |
| GAAAACAC | 0.217 ± 0.014 |
| AGTTGCGG | 0.126 ± 0.029 |
| ACGCCCTA | 0.141 ± 0.043 |
| AGCCGTGA | 0.29 ± 0.0074 |
| ACAGTTAA | 0.179 ± 0.066 |
| ACGGGAGG | -0.125 ± 0.036 |
| CAACGAAA | 0.0103 ± 0.014 |
| GTTAATCA | 0.161 ± 0.046 |
| ATTAGGAC | -0.126 ± 0.026 |
| TCTTACAA | -0.309 ± 0.041 |
| GTGTTCCA | 0.125 ± 0.037 |
| CCAAGTTC | -0.00426 ± 0.02 |
| CGGCCCTA | -0.211 ± 0.0076 |
| GCACCAGC | 0.141 ± 0.052 |
| GTAAACTA | -0.0769 ± 0.084 |
| GCCGCTCA | -0.0198 ± 0.02 |
| GTCACCTA | 0.392 ± 0.017 |
| GTCAGTCA | -0.0606 ± 0.066 |
| CTGTATAC | 0.0873 ± 0.038 |
| ACTTAATC | -0.0449 ± 0.025 |
| ACGATTGC | 0.116 ± 0.027 |
| GGCATCAC | 0.281 ± 0.006 |

| Sequence | PBM E-score of 8-mer |
| --- | --- |
| GGTATCAC | 0.2483 ± 0.00035 |
| GTACAGCA | -0.0888 ± 0.017 |
| ATACACAT | 0.0774 ± 0.0097 |
| ACAGATAC | -0.11 ± 0.068 |
| AGGTTTTC | -0.125 ± 0.03 |
| AGCCTAGG | -0.0802 ± 0.019 |
| AATTCGGT | -0.223 ± 0.018 |
| ACCTTAAA | -0.103 ± 0.071 |
| GACGGTTA | 0.0394 ± 0.071 |
| GAATAATA | -0.2 ± 0.017 |
| ACAAGGAT | -0.118 ± 0.021 |
| CTACGTAC | -0.143 ± 0.072 |
| ACGGAACC | -0.0857 ± 0.033 |
| CTGGTGAA | 0.0503 ± 0.11 |
| CATTATCG | 0.0371 ± 0.076 |
| ATCGGTCA | -0.0165 ± 0.089 |
| AAAGCGAC | 0.0882 ± 0.063 |
| ATAAAAAG | -0.0115 ± 0.068 |
| GGGAATAA | -0.187 ± 0.022 |
| CCATCGCC | 0.115 ± 0.0031 |
| CACGGTGC | 0.167 ± 0.04 |
| ACGGGGGA | -0.25 ± 0.12 |
| ACGACCCG | 0.0339 ± 0.023 |
| CCTATACA | -0.228 ± 0.019 |
| CGTCCCCA | 0.0711 ± 0.057 |

| Sequence | PBM E-score of 8-mer |
| --- | --- |
| GGATTTGA | -0.2 ± 0.037 |
| CTCTGCAC | 0.0981 ± 0.022 |
| AAAGCACT | -0.0204 ± 0.038 |
| AATACGCC | -0.109 ± 0.026 |
| CCGCTATC | 0.159 ± 0.0031 |
| GCTGGCCC | -0.109 ± 0.074 |
| CTTTACAC | 0.337 ± 0.034 |
| AGATATGC | -0.0661 ± 0.015 |
| AAGCGTCC | -0.17 ± 0.064 |
| CAGCAGAG | -0.0309 ± 0.05 |
| AAGGTACA | -0.225 ± 0.024 |
| AAAAGTCA | -0.0932 ± 0.033 |
| CGCTAAAG | 0.303 ± 0.056 |
| ACTTGTGC | -0.00268 ± 0.023 |
| CAAAGAGA | -0.0571 ± 0.0022 |
| AAATCCTC | -0.163 ± 0.02 |
| ATAACTCC | -0.147 ± 0.029 |
| TCGTTGAA | -0.0366 ± 0.034 |
| CATATACA | -0.00532 ± 0.1 |
| CTAGGTAC | -0.0845 ± 0.026 |
| GGATGCCC | 0.00449 ± 0.079 |
| ACCGAGCT | -0.191 ± 0.053 |
| ATGGTCAA | -0.0272 ± 0.11 |
| CGCAGACA | 0.173 ± 0.02 |
| CATAGTGA | 0.102 ± 0.03 |

| Sequence | PBM E-score of 8-mer |
| --- | --- |
| CATCCCAG | -0.0881 ± 0.028 |
| ATATTCCA | -0.124 ± 0.0019 |
| CTGCACCC | -0.0261 ± 0.075 |
| ATGACGGC | 0.00549 ± 0.0075 |
| CGAGGAAA | -0.155 ± 0.09 |
| CTATTTTC | 0.103 ± 0.0057 |
| GCGCTGAC | 0.183 ± 0.066 |
| AGGCGCAT | -0.182 ± 0.024 |
| AGTCACGG | -0.193 ± 0.0098 |
| CTAATTCC | -0.108 ± 0.0076 |
| CACACGCC | 0.278 ± 0.014 |
| GTCTTCTA | -0.215 ± 0.0051 |
| CGCTTTGC | -0.101 ± 0.0023 |
| AGAAAGGG | -0.172 ± 0.014 |
| GGCTAATA | -0.343 ± 0.037 |
| CAAGCGCG | 0.219 ± 0.045 |
| AGGAGGTG | 0.391 ± 0.03 |
| ACAAGCTG | -0.0789 ± 0.095 |
| CGAGATCC | 0.0984 ± 0.011 |
| CACCTAAA | 0.3188 ± 0.00098 |
| AAGCAGTA | -0.24 ± 0.015 |
| CATGGTCA | -0.0299 ± 0.0084 |
| GCGTAGCC | -0.273 ± 0.014 |
| ATCGAGAA | 0.0629 ± 0.003 |
| ACAATGGC | -0.145 ± 0.015 |

| Sequence | PBM E-score of 8-mer |
| --- | --- |
| GTACTGAA | -0.166 ± 0.025 |
| CTGGCCGA | -0.348 ± 0.077 |
| CTGGCAGC | 0.062 ± 0.036 |
| ACGCGTCC | 0.0966 ± 0.012 |
| AGCATTTA | 0.0949 ± 0.041 |
| AGACTTGC | 0.212 ± 0.06 |
| CGGATCCC | -0.073 ± 0.1 |
| ACGTCCCG | 0.00739 ± 0.056 |
| GATTACCC | -0.187 ± 0.018 |
| GATAGGCC | -0.178 ± 0.057 |
| CAAAATCG | 0.0801 ± 0.0068 |
| GACCCGAA | 0.14 ± 0.0097 |
| CCTAAGGC | -0.1219 ± 0.0011 |
| ACCATGCA | -0.145 ± 0.054 |
| CAATCATG | 0.0291 ± 0.021 |
| GATTCGCA | 0.327 ± 0.014 |
| CAATCATC | -0.0123 ± 0.036 |
| GCGAGACA | 0.0993 ± 0.03 |
| AGTTCTGG | -0.228 ± 0.0063 |
| ACCGCCAT | -0.0737 ± 0.066 |
| AAGCCCAC | -0.0949 ± 0.035 |
| CTTCGCCA | 0.273 ± 0.019 |
